# Laboratory results: PubChem BioAssay AID485294 (National Center for Advancing Translational Sciences (NCATS), 2010)
# Several values for one entry are separate records, joined by “and”; a condition that tells them apart may be missing. Equal values may be shown once. The whole screen tested about 370,000 compounds, of which about 150 (0.041%) were called active. The shares of active, inactive and inconclusive entries below differ from those in the screen. Calls come from the whole dose curve; as a rule, active = well fitted inhibition curve with a large enough effect; inconclusive = small, poorly fitted or top-dose-only effect; inactive = flat fitted curve, though single readings scatter. A potency beside an inconclusive call is a rough fit, not a confirmed value.
# Target: Beta-lactamase (Escherichia coli (strain K12)) (UniProt P00811)
# Assay: qHTS Inhibitors of AmpC Beta-Lactamase (assay with detergent); note: nearly all actives have a fitted effect of over 25% in size;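 for activity change, negative = inhibition: 0% = no-compound wells and -100% = no-enzyme wells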
# Settings: AmpC hydrolysis of nitrocefin, absorbance 480 nm, 0.01% Triton; activity change, negative = inhibition: at 114 µM (top of the series)
# How it was run: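 20 mM phosphate pH 7.0 + 0.01% (detergent screen) or 0.0001% Triton X-100; 5.3 nM AmpC reagent; cpd preinc 15 min RT; nitrocefin (800 uM stock) to start; A480 q20 s × 4 min; Activity was normalised to no-enzyme and no-compound control wells.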
# Potency is the fitted concentration of half-maximal effect; tags give direction and shape of the fitted curve.
# Sequence of UniProt P00811 (P00811 whole entry, looked up): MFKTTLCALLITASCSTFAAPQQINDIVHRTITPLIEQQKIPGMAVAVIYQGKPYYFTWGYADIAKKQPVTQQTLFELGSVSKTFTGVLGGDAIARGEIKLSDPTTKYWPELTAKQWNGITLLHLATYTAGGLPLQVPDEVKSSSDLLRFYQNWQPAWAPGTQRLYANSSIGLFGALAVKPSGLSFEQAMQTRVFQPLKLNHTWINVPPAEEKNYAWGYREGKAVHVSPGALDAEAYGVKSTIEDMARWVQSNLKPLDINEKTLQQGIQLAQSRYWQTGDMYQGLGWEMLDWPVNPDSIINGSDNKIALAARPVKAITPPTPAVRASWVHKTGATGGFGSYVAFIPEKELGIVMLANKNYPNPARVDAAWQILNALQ
Compound,Potency,"activity change, negative = inhibition"
Clc1ccc(Oc2cccc(/C=N/n3cnnc3)c2)cc1,"inconclusive: 12.6 µM [inhibitor, full curve]",–
COC(=O)c1cc(CSC(=N)N)ccc1OCCC(C)C,–,inactive: 5.13%
C=CCN1CC(c2nc3ccccc3n2Cc2cccc3ccccc23)CC1=O (stereo not given),–,inactive: -14.5%
O=C(O)c1cccc(NC(=S)NC(=O)c2ccc(-c3ccccc3)cc2)c1,–,inactive: 0.142%
N#C/C(=C\c1ccccc1C(F)(F)F)C(=O)Nc1ccccc1,"inconclusive: 100 µM [inhibitor, single point]",–
O=C(O)CC(C(=O)O)c1cn(Cc2ccccc2)c2ccccc12 (stereo not given),"inconclusive: 79.4 µM [inhibitor, partial curve, poor fit]",–
O=C(Nc1cccc2nsnc12)c1cccs1,"inconclusive: 35.5 µM [inhibitor, full curve, poor fit] and inconclusive: 631 nM [inhibitor, full curve, poor fit]",–
O=C(CSc1nnc(NC2CCCCC2)s1)NCc1ccco1,"inconclusive: 63.1 µM [inhibitor, partial curve, poor fit]",–
c1ccc(N=Nc2cn[nH]c2-c2ccco2)cc1,"inconclusive: 44.7 µM [inhibitor, partial curve, poor fit]",–
COc1ccc(-c2nc(C3CCCCC3)c3cc(OC)ccc3n2)cc1,"inconclusive: 35.5 µM [inhibitor, single point]",–
CCOC(=O)c1cnc(SCC(=O)Nc2sc(C)c(C)c2C#N)nc1N,"inconclusive: 50.1 µM [inhibitor, partial curve, poor fit]",–
Cc1ccc(C(=O)NC2CCCCCCC2)c(Cl)c1,"inconclusive: 3.98 µM [inhibitor, full curve, poor fit]",–
CN(CC(=O)Nc1ccc(Cl)cc1)C(=O)c1cc(-c2cccs2)nn1-c1ccccc1,–,inactive: -7.75%
COc1ccc(-c2nc(CSCC(=O)N3CCN(c4cccc(C)c4C)CC3)c(C)o2)cc1OC,–,inactive: -0.297%
COC(=O)NCC1(C)CC(NC(=O)OC)CC(C)(C)C1 (stereo not given),"inconclusive: 31.6 µM [inhibitor, full curve, poor fit]",–
CC(=O)c1ccc(NC(=S)NC(C)c2ccc(Cl)cc2Cl)cc1 (stereo not given),"inconclusive: 8.91 µM [inhibitor, full curve, poor fit]",–
CCOC(=O)C1CCN(C(=O)c2ccccc2N(C)S(C)(=O)=O)CC1,"inconclusive: 7.08 µM [inhibitor, full curve]",–
CCOc1ccc(C(=O)NC(=S)Nc2cc(C)ccn2)cc1[N+](=O)[O-],"inconclusive: 89.1 µM [inhibitor, single point]",–
CN1CCOc2cc(S(=O)(=O)Nc3ccc(F)cc3)ccc21,"inconclusive: 79.4 µM [inhibitor, single point]",–
O=C(NC1CCS(=O)(=O)C1)c1ccc2c(c1)OCO2 (stereo not given),"inconclusive: 39.8 µM [inhibitor, partial curve]",–
Cc1ccc(S(=O)(=O)Nc2cccnc2)c(C)c1C,"inconclusive: 7.08 µM [inhibitor, full curve, poor fit]",–
O=C(CN1C(=O)c2ccccc2C1=O)NCc1ccncc1,"inconclusive: 1.58 µM [inhibitor, full curve]",–

Compound,Potency,"activity change, negative = inhibition"
Cn1nc(-c2ccc(OCC(=O)N3CCN(Cc4ccccc4)CC3)cc2)c2ccccc2c1=O,"inconclusive: 39.8 µM [inhibitor, full curve]",–
CCC(NC(=O)c1cc(COc2ccc(F)cc2Cl)on1)c1ccncc1 (stereo not given),–,inactive: 3.94%
C#CCOCCOCCOCCNc1nc(N2CCN(C(=O)CCCCCCCCCCNC(=O)[C@H]([C@@H](C)CC)n3cc(CCCCN=C(N)N)nn3)CC2)nc(N2CCN(C(=O)CCCCCCCCCCNC(=O)[C@H]([C@@H](C)CC)n3cc(CCCCN=C(N)N)nn3)CC2)n1,–,inactive: 6.75%
CCNc1nc(N)nc(Oc2ccc(OCCOc3ccc(Cl)cc3Cl)nn2)n1,"inconclusive: 0.631 µM [inhibitor, full curve, poor fit]",–
COC(=O)C1=C(C)N(Cc2ccco2)C(=O)N[C@H]1c1ccccc1,–,inactive: -0.956%
O=C(CSc1nnc(-c2ccncc2)n1Cc1ccccc1)Nc1nccs1,"inconclusive: 56.2 µM [inhibitor, partial curve]",–
CCN(CC)c1ccc(N=Cc2ccccc2[N+](=O)[O-])cc1,"inconclusive: 35.5 µM [inhibitor, partial curve]",–
CSC1=C(C#N)C(c2cccc(Br)c2)CC(=O)N1 (stereo not given),"inconclusive: 0.891 µM [inhibitor, full curve]",–
Cc1cccc(-n2c(C)cc(/C=C3\C(=N)N4N=C(CC(C)C)SC4=NC3=O)c2C)c1,"inconclusive: 1.41 µM [inhibitor, full curve, poor fit]",–
O=C(Nc1ccsc1C(=O)NC1CCCCC1)c1ccc(F)cc1,"inconclusive: 112 µM [inhibitor, partial curve, poor fit]",–
CCN(CC)CCNC(=O)c1ccc(CS(=O)(=O)c2ccc(Br)cc2)o1,"inconclusive: 5.01 µM [inhibitor, single point]",–
COc1ccc(-c2nc(Cn3c(SCc4ccccc4F)nc4ccncc43)c(C)o2)cc1,"inconclusive: 5.01 µM [inhibitor, full curve]",–
CCCc1c(NC(=O)Nc2ccc(F)cc2)cnn1-c1ccc(Cl)cc1,–,inactive: -6.02%
CCOc1ccccc1N1CCN(C(=O)c2c(CC)noc2C)CC1,"inconclusive: 112 µM [inhibitor, partial curve, poor fit]",–
COc1ccc(C(=O)N2CCN(Cc3cc(=O)n4nc(-c5ccccc5C)sc4n3)CC2)cc1OC,–,inactive: 3.46%
O=C(Nc1nc2ccsc2c(=O)s1)c1ccc(F)cc1,–,inactive: 2.18%
COc1ccc(/C=C(\NC(=O)/C=C/c2ccco2)C(=O)NCCc2nc3ccccc3[nH]2)cc1,"inconclusive: 0.631 µM [inhibitor, full curve]",–
NC(=O)CN1C(=O)C(O)(CC(=O)c2ccccc2O)c2ccccc21 (stereo not given),–,inactive: -9.11%
CC(C)(C)CC(C)(C)N1CNC(=S)NC1,–,inactive: -12.8%
COc1ccc(-n2c(N)c(C(=O)NCc3cccnc3)sc2=S)cc1,"inconclusive: 5.62 µM [inhibitor, full curve, poor fit]",–
CNCCC=C1c2ccccc2CCc2ccccc21,"inconclusive: 12.6 µM [inhibitor, partial curve]",–
O=S(Cc1ccc(Br)cc1)Cc1nnc(SCc2c(F)cccc2Cl)n1-c1ccccc1 (stereo not given),"inconclusive: 112 µM [inhibitor, partial curve, poor fit]",–

Compound,Potency,"activity change, negative = inhibition"
C=CCN1C[C@@H](C)N(C(c2ccc(C(=O)N(CC)CC)cc2)c2cccc(OC)c2)C[C@@H]1C (stereo not given in full),–,inactive: -13.3%
C#CCOCCOCCOCCNc1nc(N2CCN(C(=O)[C@H](CCC(=O)O)n3cc(C(N)Cc4ccc(O)cc4)nn3)CC2)nc(N2CCN(C(=O)[C@H](Cc3cc4ccccc4[nH]3)n3cc(C(N)CC(C)C)nn3)CC2)n1 (stereo not given in full),–,inactive: 3.4%
Cc1ccc(-c2ccc(C(=O)NCc3ccccc3)o2)c2ccccc12,"inconclusive: 0.631 µM [inhibitor, full curve, poor fit]",–
COc1ccc(C(=O)N/C(=C\c2ccccc2)C(=O)Nc2ccc(C(=O)NCC(=O)O)cc2)cc1,–,inactive: -6.92%
Cc1ccc(S(=O)(=O)N(C)C)cc1NC(=O)COC(=O)CNC(=O)c1cccs1,"inconclusive: 89.1 µM [inhibitor, single point]",–
COc1ccc(OC)c(-c2nnc(SCC(=O)NC3CCCCC3)o2)c1,"inconclusive: 2.82 µM [inhibitor, full curve, poor fit]",–
COc1ccc(C)cc1NC(=O)c1ccc2c(SCC(=O)O)c3c(nc2c1)CCCC3,inactive,–
CCOc1ccc(NC(=O)C2CC(=O)N(c3ccc(C(C)C)cc3)C2)cc1 (stereo not given),–,inactive: 3.44%
Cc1nn(-c2ccccc2)nc1CNC(=O)C(C)Cc1ccccc1 (stereo not given),"inconclusive: 100 µM [inhibitor, partial curve, poor fit]",–
COc1cccc(NC(=S)N(Cc2ccc(C)cc2)Cc2ccccn2)c1,"inconclusive: 0.562 µM [inhibitor, full curve, poor fit]",–
CCCCc1ccc(NC(=O)C(=O)NCCN2CCN(Cc3ccc([N+](=O)[O-])cc3)CC2)cc1,–,inactive: 2.28%
CC(C)N(Cc1cn(C)nc1-c1cccc(Cl)c1)CC1CCC(=O)N1 (stereo not given),–,inactive: 2.76%
Cc1cc(Nc2cccc(C)c2C)n2ncnc2n1,"inconclusive: 0.562 µM [inhibitor, full curve, poor fit]",–
Cc1cccc(N2CCN(C(=O)C3CCN(S(=O)(=O)N4CCOCC4)CC3)CC2C)c1 (stereo not given),–,inactive: -4.5%
CCC(=O)c1cc2c(C)cc(=O)oc2c(C)c1OC,"inconclusive: 4.47 µM [inhibitor, full curve, poor fit]",–
COCCN(C(=O)c1ccc(N2CCCC2=O)cc1)c1c(N)n(CC(C)C)c(=O)[nH]c1=O,"inconclusive: 35.5 µM [inhibitor, partial curve, poor fit]",–
COc1cccc(N(CC(=O)Nc2ccc3c(c2)OCO3)S(=O)(=O)c2ccccc2)c1,"inconclusive: 39.8 µM [inhibitor, single point]",–
CC1=CC2=NC(=O)CC(C)(C(=O)N(CC(=O)NC3CCCC3)c3ccccc3C)N2C=C1 (stereo not given),"inconclusive: 100 µM [inhibitor, single point]",–
CC(C)CCN(C(=O)CCCSc1nc2ccccc2[nH]1)c1c(N)n(Cc2ccccc2)c(=O)[nH]c1=O,"inconclusive: 0.355 µM [inhibitor, full curve, poor fit]",–
Brc1ccc(Oc2ccc(Br)cc2Br)c(Br)c1,–,inactive: -9.01%
COc1cccc(C(=O)N2CCN(c3ncccn3)CC2)c1,–,inactive: -0.207%
